Drawing on PMC10726135, this text covers binding signal (log2 normalized intensity) for 72 sequences.

The list shows a part of the results. At the low end of the ranking, values are background and their order means little. Measured with an extract: partners may take part in the binding.

This experiment addresses T1, HNF4alpha2 (COS-7 nuclear extract) (UniProt P41235).
T1 sequence: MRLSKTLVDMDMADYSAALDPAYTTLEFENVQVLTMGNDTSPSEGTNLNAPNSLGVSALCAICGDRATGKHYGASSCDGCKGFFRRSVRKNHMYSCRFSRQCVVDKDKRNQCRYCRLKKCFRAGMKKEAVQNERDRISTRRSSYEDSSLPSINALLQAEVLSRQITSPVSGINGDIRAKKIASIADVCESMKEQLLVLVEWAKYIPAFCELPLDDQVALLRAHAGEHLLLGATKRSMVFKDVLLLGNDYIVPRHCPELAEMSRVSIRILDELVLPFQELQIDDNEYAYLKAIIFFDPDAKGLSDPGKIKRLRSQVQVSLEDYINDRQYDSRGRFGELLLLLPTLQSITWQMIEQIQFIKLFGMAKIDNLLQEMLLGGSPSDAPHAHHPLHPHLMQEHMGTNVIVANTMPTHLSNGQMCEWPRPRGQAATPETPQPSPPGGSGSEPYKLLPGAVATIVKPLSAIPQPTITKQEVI
The experiment is described as follows: protein-binding microarray. The conditions noted are these: COS-7 nuclear extract on double-stranded Agilent 4x180k PBM; binding buffer, salt, pH and temperature not given; high values mean tight binding; double strand, one strand shown; sequences stand for … in …GCCTAGGGAGATTAGAGTATCGGTCGA
As to AACAGTGAATGTTTCGTAATATTTAGGTGT, the binding signal (log2 normalized intensity) was 1.49.

With GGGACAAAGTTCATCTGGGCTTTAGGTTTG, the binding signal (log2 normalized intensity) was 2.48. The figure for CAAAGTGTGATTAACAAGCATTTTGTTCCC is 1.17. Turning to GTCTTCTGTTTGCAAATGGATGAATTTTAT, the binding signal (log2 normalized intensity) stood at 1.36. The figure for CTGTAGAAAGACTAAAGTTCAGGAGGGAGG is -0.867; for TTTGTCCCAAGGAGAATTTCACAAAGGGCA it is 0.859.

Turning to GAATCCCAGTTCTGATACACTCGCCGTGTG, the binding signal (log2 normalized intensity) was -0.806. With AGTTTTTCTTGCTCTTTACCCCTGCAAGGA, the binding signal (log2 normalized intensity) came out at 2.02. For the sequence GTCAGGCTGCTCAGCTGCCTAGAGGCCTGG, the binding signal (log2 normalized intensity) is -1.15. For AAAGGGAATAACCTTTGAGCTGAGTTCCAC the value was 3.52. Turning to TGGGCTGGACTAAGAGTAGCGGTTTCTGCT, the binding signal (log2 normalized intensity) was -1.08.

Regarding AGTTGCCTGATGACAACTGAATGTGACCTT, the binding signal (log2 normalized intensity) was determined as 4.35.

With TGGACAACTGTACTTTGGACTGGGGACCTG, the binding signal (log2 normalized intensity) worked out at 5.1. The figure for AGTTGCTCAGTGTTCCACAGCAAGTAAATT is -1.11; for CTTCTCCCTCTTATCAGCTGCTAAGTCTTT it is 0.722; for GAATGAGGGAGGCAGCCACCTAGGCCGGTC it is -1.12. Take GTATGTGGACTTTCAACTGCAGGGGGGTGG: the binding signal (log2 normalized intensity) stood at 2.58. Take AATGCTGCAATTCTCTTTGCCAAAGCATAG: the binding signal (log2 normalized intensity) is -0.944. The figure for CAAATAAACCTTTGACCAATTGACCCTATC is 3.78.

As for CTTATCTGGTGTGCTTTCTGTCCTCTCAAA, the binding signal (log2 normalized intensity) was determined as 0.945.

On to CTTTATCTAAGTAAACTAGTGATGTGGAAA, for which the binding signal (log2 normalized intensity) came to 0.899. AAAACAGCAGAGCACGATGAATAGGGACGT: the binding signal (log2 normalized intensity) was -1.13.

Regarding GGATCGGAACCCCACCCCCACGCCCCCCAG, the binding signal (log2 normalized intensity) was found to be 7. The figure for ACCTGGAGCCCTTAGGGTCAATGGGACATT is 2.32; for GCACCAGAGATAATATGCTTACTTAACTCC it is -1.06; for TGCTCATTGACCCTTAGGCCAAGGCTTACT it is 1.8. TTTGTCTGTGTAGACTCATCTGGTGTCATT: the binding signal (log2 normalized intensity) worked out at 1.62.

Take GTTGCACCTCTTATCAAGCGTGCACCCCAG: the binding signal (log2 normalized intensity) was 2.1. The figure for TGAGTGTTTGACCTTTCACCCAGAAAAGGC is 5.02.

TTGTGTAAGTGTGGGTTTAAGTAAGCCCCC: the binding signal (log2 normalized intensity) stood at 3.86. For TGGTTTGCCTCTCTTAGGTGACAGCCTTTT the value was 0.682; for TCCCTCCCAGTACAAAGTTCACTTTCTTGT, 4.74; for AGTTTACTTCATCTAAGTGGGTCTAGGTTC, 1.67. For AGCGGCCATTTACTGACTAAAGGTTAAACA, the binding signal (log2 normalized intensity) was determined as 2.13.

As for TGCCTTTGATGTTTCAGCCCTAAAGACCAC, the binding signal (log2 normalized intensity) was determined as 0.422. As for CTCAGATCACAAAAGATGGAACAAGCCAGG, the binding signal (log2 normalized intensity) is -1.04. The figure for TATCCCTGGAGCCTTAGAAGATGACCTTTT is 5.59; for AGATCATCCTGCAGTTCCTGATCTTTGACC it is 7.04; for TCCTTGACCCTGAAAACAGGGCAAGGAACG it is -0.602. For GGATTGATAGACTTATCTCAGCCTGGCTAA the value was -1.13. Turning to CAAAGTACAGTAATTTCACTGATATGGTGA, the binding signal (log2 normalized intensity) was 1.21. For CAAGGACTCTAAAGGGAATAACCTTTGAGC, the binding signal (log2 normalized intensity) came out at 5.82.

For the sequence TATGACAACAAAGCATTATCTACACAGTAA, the binding signal (log2 normalized intensity) was -1.13.

Take TCTTTCTCCCAGAGGTCGATCTGATCTTAA: the binding signal (log2 normalized intensity) amounted to 1.5. Consider AATGGAGGAGTTCAGCAGCATCTAAACTCT, for which the binding signal (log2 normalized intensity) was -1.14. The figure for ATGTGCCAGACACTGCTCTAGGCATTGGAG is -1.13; for GCTTGGGAGCAGTCCTTGGGGAAGGGGTAC it is -0.198; for AGTTCCCATTTGCGCTGGTTTTATGGTGTC it is 1.91. On to CAAGGACTTTGAAGGCCCCAATTGCCAAGG, for which the binding signal (log2 normalized intensity) is -1.04. The figure for AGAATAAGGGTTCATCTGACTGGAAGAGCC is -0.861. The figure for CTGGCCTTTCATGCCGGCGTGACCCCCACT is 5.52; for GGACTTTGAACCTTGGGTCTGTAATCTCAC it is 7.11. For ACCCCACTTTGGTTCACCGCTCACTGCTCC, the binding signal (log2 normalized intensity) was -0.714. As to AGCCTGGGCCCCAGGGGACGTGGAATAGAT, the binding signal (log2 normalized intensity) was -0.324. For GGGACCGGCCTTTCCCGGCTGCCTAAGCAC the value was -1.17; for TACTCTAGAACACTTTCCACTCTCTACTGA, -1.1; for CCTGGGATCGAAAGGACATTGTCCATCACC, 0.329. TCTTTTGAGCTGTGGTTAAGACTCAAAGTT: the binding signal (log2 normalized intensity) is 1.15. Turning to GTAAGTGTTAATGGCACTTCGTTTCAAAGT, the binding signal (log2 normalized intensity) came out at 1.06. For TCCGCTTGCCTGAGGGTCATGACTAAAGCA the value was 0.312; for AAAGCAGCCAACCAGAGGCTGAAGTGAAGT, -0.671; for GCAGTTTAGAGAAAGGGTCAAAGGTTAAGC, 8.4. With CAGCCGGAGAGGCAAGTATGGTAAGGTCGA, the binding signal (log2 normalized intensity) was determined as 0.972.

Consider TTCCCTTGTTTACCTTGGTGTTTCTTTGAT, for which the binding signal (log2 normalized intensity) amounted to 1.68. On to TTACCTCTGCTCCCCCTGCCCTTCGTCCTG, for which the binding signal (log2 normalized intensity) turned out to be 3.93. The figure for TGCAATAGAGCCACATTCTGAGACTAAAGA is -1.04. The figure for CCAAAGAAAAAAGCCAATCTCTCAAATCTA is -1.14; for CTGCTCCCCTGGCCTCACCCTTGTCCCTGA it is 2.83; for GGACATTCTATGGAATACAGCAGGGTAGAA it is 0.324. The figure for AATCTAGGATAACTCTAGTGATCTTATCAG is -0.736; for TAAGCTATGTGGTGGAATGGAAAGAATATG it is 0.569. In the case of CAGTGCAGCGGGGTCAGAGAAACCTGGCTG, the binding signal (log2 normalized intensity) was -1.12.
